Experimental findings from US20220125947A1 (published 2022) are described below.

Test [1] concerns the target T1, TCR gamma/delta constant region (TRGDC) (human, UniProt P0CF51 1-173; B7Z8K6 1-153).
T1 chain (looked up) 1: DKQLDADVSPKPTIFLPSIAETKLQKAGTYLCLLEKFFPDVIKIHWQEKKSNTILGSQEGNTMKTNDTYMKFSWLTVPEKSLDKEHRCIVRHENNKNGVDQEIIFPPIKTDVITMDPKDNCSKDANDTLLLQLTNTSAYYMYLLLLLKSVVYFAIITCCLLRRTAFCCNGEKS
T1 chain (looked up) 2: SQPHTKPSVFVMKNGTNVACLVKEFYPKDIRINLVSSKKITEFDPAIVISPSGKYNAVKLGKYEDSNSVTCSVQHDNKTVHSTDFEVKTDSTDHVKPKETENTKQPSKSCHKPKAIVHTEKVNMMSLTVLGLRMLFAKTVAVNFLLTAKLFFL
The test is described as follows: cell-based or functional assay.

Test [2] concerns the target T2, T cell receptor (TCR) Vγ9 (TRGV9) (human, UniProt Q99603 21-122).
T2 chain (looked up): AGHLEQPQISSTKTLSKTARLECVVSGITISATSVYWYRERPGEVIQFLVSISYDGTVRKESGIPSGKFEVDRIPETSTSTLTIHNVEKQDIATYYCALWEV
The test is described as follows: cell-based or functional assay.

For test [3], the target named is T3, T cell receptor (TCR) Vγ9 (TRGV9) (human, UniProt Q99603 21-122).
T3 sequence (looked up): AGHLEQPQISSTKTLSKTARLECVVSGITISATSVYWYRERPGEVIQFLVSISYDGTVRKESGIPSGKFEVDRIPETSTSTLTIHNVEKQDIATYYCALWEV
The test can be described thus: cell-based or functional assay. This is another data set of the same source.

The target in test [4] is T4, γδ T cell receptor on human γδ T cells (human).
T4 construct: also called AG000003021 (γδ T cells)
The test is described as follows: flow cytometry, dose-response binding at 37 C on human γδ T cells. Here is the method: Binding of antibodies to human γδ T cells or SKW cell lines expressing Vγ9/Vδ2, Vγ9/Vδ2 or Vγ5/Vδ2 was carried out by flow cytometry. Briefly, the cells were centrifuged at 300×g for 5 minutes and the pellet was resuspended in 34 ml fresh media (in RPMI+10% FBS). 50 μL of the cells were then plated (44K cells/well) into assay plates. Samples were incubated for one hour at 37° C. in tissue culture (TC) incubator followed by wash steps by adding 100 μl FACS staining buffer. Secondary detention antibodies (A647 conjugated anti-human IgG Fc specific antibody (2 μg/mL) along with AF488 anti mouse CD3, clone OKT3 at 1 ug/mL) were added at 50 μL/well to appropriate wells according to the plate map. After incubating for 60 minutes at 37° C. in the TC incubator, cells were again washed as described above. This is followed by resuspension in 20 μL/well running buffer containing 1:1000 dilution of Sytox blue dead cell stain and the plates were run on iQue Screener.
Gating and data analysis: Human anti-human Vγ9 antibody (VG9B2 mAb at 10 nM) was used to mark the gating of positive population. All cells were first gated for singlets on SCS-A vs. SCS-H dot plot, live/dead followed by CD3 positive population, and this subset of CD3 positive population was gated for Vγ9 positive binding using positive control mAb. Cells were also assessed for cell binding of control mAbs by RL1 (A647) Geomeans from the live cell population. Advanced metrics were used and normalization metrics were chosen to calculate fold over background wells containing secondary antibody alone (designated as ‘background’ within ForeCyt settings).

B1: VG9B371 (antibody, human IgG1, kappa)
heavy: EVQLLESGGGLVKPGGSLRLSCAASRFTLSSYDMNWVRQAPGKGLEWVSSISSSSSYIYYADSVKGRFTISRDNAKNSLYLQMNSLRAEDTAVYYCARDRGVGGTDYYYYGLDVWGQGTTVTVSS[human IgG1 constant region omitted here]
light: [about 100 residues omitted here][about 100 residues omitted here]
Take B1: in test [1], the “CD25+ (Vg9+ cells), flow staining” value turned out to be 42.3%; the “CD71+ (Vg9+ cells), flow staining” value stood at 98.4%; the “Granzyme B; Luninex (supernatant)” value came to 7480; the “IFNγ; Luninex (supernatant)” value came to 4830. Further, in test [1], the “IL6; Luninex (supernatant)” value amounted to 1560; the “TNFα; Luninex (supernatant)” value worked out at 4100; the “Vg9 T cell %, flow staining” value was 8.2%.

B2: VG9B423 (antibody, human IgG1, kappa)
heavy: EVQLVESGGGLVKPGGSLRLSCSASGFTFSNYDMNWVRQAPGKGLEWVSSISSSSSYIYYADSVKGRFTISRDNAKNSLYLQMNSLRAEDTAVYHCARDVGVTTDYYYYGMDVWGQGTMVTVSS[human IgG1 constant region omitted here]
light: ETTLTQSPGTLSLSPGDRATLSCRASQSVASSYLAWYQQKPGQSPRLLIYGASSRATGIPDRFSGSGSGTDFTLTISRLEPEDFAVYYCQQYGSSPPYTFGQGTKVEIKRTVAAPSVFIFPPSDEQLKSGTASVVCLLNNFYPREAKVQWKVDNALQSGNSQESVTEQDSKDSTYSLSSTLTLSKADYEKHKVYACEVTHQGLSSPVTKSFNRGEC
Consider B2, for which, in test [2], the “CD25+ (Vg9+ cells), flow staining” value is 40.3%; the “CD71+ (Vg9+ cells), flow staining” value was 98.9%; the “Granzyme B, Luminex (supernatant)” value is 3380; the “IFNγ, Luminex (supernatant)” value came out at 1430. Moreover, in test [2], the “IL6, Luminex (supernatant)” value was determined as 590; the “TNFα, Luminex (supernatant)” value was found to be 229; the “Vg9 T cell %, flow staining” value was determined as 13.9%.

B3: VG9B426 (antibody, human IgG1, kappa)
heavy: EVQLVQSGGGLVKPGGSLRLSCSASGFTFSNYDMNWVRQAPGKGLEWVSSISSSSSYIYYADSVKGRFTISRDNAKNSLYLQMNSLRAEDTAVYHCARDVGVTTDYYYYGMDVWGQGTMVTVSS[human IgG1 constant region omitted here]
light: ETTLTQSPGTLSLSPGDRATLSCRASQSVASSYLAWYQQKPGQSPRLLIYGASSRATGIPDRFSGSGSGTDFTLTISRLEPEDFAVYYCQQYGSSPPYTFGQGTKVEIKRTVAAPSVFIFPPSDEQLKSGTASVVCLLNNFYPREAKVQWKVDNALQSGNSQESVTEQDSKDSTYSLSSTLTLSKADYEKHKVYACEVTHQGLSSPVTKSFNRGEC
For the molecule B3, in test [3], the “CD25+ (Vg9+ cells), flow staining” value stood at 36.5%; the “CD71+ (Vg9+ cells), flow staining” value was 98.8%; the “Granzyme B, Luminex (supernatant)” value came out at 4590; the “IFNγ, Luminex (supernatant)” value is 2350. In test [3], the “IL6, Luminex (supernatant)” value was determined as 621; the “TNFα, Luminex (supernatant)” value is 789; the “Vg9 T cell %, flow staining” value amounted to 7.6%.

B4: VG9B424 (antibody, human IgG1, kappa)
heavy: EVQLVESGGGLVKPGGSLRLSCSASGFTFSNYDMNWVRQAPGKGLEWVSSISSSSSYIYYADSVKGRFTISRDNAKNSLYLQMNSLRAEDTAVYHCARDVGVTTDYYYYGMDVWGQGTMVTVSS[human IgG1 constant region omitted here]
light: ETTLTQSPGTLSLSPGDRATLSCRASQSVASSYLAWYQQKPGQSPRLLIYGASSRATGIPDRFSGSGSGTDFTLTISRLEPEDFAVYYCQQYGSSPPYTFGQGTKLEIKRTVAAPSVFIFPPSDEQLKSGTASVVCLLNNFYPREAKVQWKVDNALQSGNSQESVTEQDSKDSTYSLSSTLTLSKADYEKHKVYACEVTHQGLSSPVTKSFNRGEC
notes: IgG1, kappa; also called antibody #25
With B4, the “Max. Activity” value in test [4] was 2780 fold over background.

B5: VG9B423 (antibody, human IgG1, kappa)
heavy: EVQLVESGGGLVKPGGSLRLSCSASGFTFSNYDMNWVRQAPGKGLEWVSSISSSSSYIYYADSVKGRFTISRDNAKNSLYLQMNSLRAEDTAVYHCARDVGVTTDYYYYGMDVWGQGTMVTVSS[human IgG1 constant region omitted here]
light: ETTLTQSPGTLSLSPGDRATLSCRASQSVASSYLAWYQQKPGQSPRLLIYGASSRATGIPDRFSGSGSGTDFTLTISRLEPEDFAVYYCQQYGSSPPYTFGQGTKVEIKRTVAAPSVFIFPPSDEQLKSGTASVVCLLNNFYPREAKVQWKVDNALQSGNSQESVTEQDSKDSTYSLSSTLTLSKADYEKHKVYACEVTHQGLSSPVTKSFNRGEC
notes: IgG1, kappa; also called antibody #20
For the molecule B5, in test [4], the “Max. Activity” value worked out at 2960 fold over background.

B6: VG9B415 (antibody, human IgG1, kappa)
heavy: EVQLVESGGGLVKPGGSLRLSCSASGFTFSNYDMNWVRQAPGKGLEWVSSISSSSSYIYYADSVKGRFTISRDNAKNSLYLQMNSLRAEDTAVYHCARDVGVTTDYYYYGMDVWGQGTTVTVSS[human IgG1 constant region omitted here]
light: ETTLTQSPGTLSLSPGDRATLSCRASQSVASSYLAWYQQKPGQSPRLLIYGASSRATGIPDRFSGSGSGTDFTLTISRLEPEDFAVYYCQQYGSSPPYTFGQGTKLEIKRTVAAPSVFIFPPSDEQLKSGTASVVCLLNNFYPREAKVQWKVDNALQSGNSQESVTEQDSKDSTYSLSSTLTLSKADYEKHKVYACEVTHQGLSSPVTKSFNRGEC
Consider B6, for which, in test [2], the “CD25+ (Vg9+ cells), flow staining” value turned out to be 31.5%; the “CD71+ (Vg9+ cells), flow staining” value was found to be 96.9%; the “Granzyme B, Luminex (supernatant)” value is 5160; the “IFNγ, Luminex (supernatant)” value came to 1210. In test [2], the “IL6, Luminex (supernatant)” value worked out at 403; the “TNFα, Luminex (supernatant)” value turned out to be 193; the “Vg9 T cell %, flow staining” value stood at 5.3%.

B7: VG9B399 (antibody, human IgG1, kappa)
heavy: EVQLVESGGGLVKPGGSLRLSCSASGFTFSNYDMNWVRQAPGKGLEWVSSISSSSSYIYYADSVKGRFTISRDNAKNSLYLQMNSLRAEDTAVYHCARDVGVTTDYYYYGMDVWGQGTMVTVSS[human IgG1 constant region omitted here]
light: ETTLTQSPGTLSLSPGDRATLSCRASQSVASSYLAWYQQKPGQSPRLLIYGASSRATGIPDRFSGSGSGTDFTLTISRLEPEDFAVYYCQQYGSSPPYTFGQGTKVDIKRTVAAPSVFIFPPSDEQLKSGTASVVCLLNNFYPREAKVQWKVDNALQSGNSQESVTEQDSKDSTYSLSSTLTLSKADYEKHKVYACEVTHQGLSSPVTKSFNRGEC
Regarding B7, in test [1], the “CD25+ (Vg9+ cells), flow staining” value amounted to 36.8%; the “CD71+ (Vg9+ cells), flow staining” value is 96.5%; the “Granzyme B; Luninex (supernatant)” value was found to be 8240; the “IFNγ; Luninex (supernatant)” value worked out at 2400. For the same molecule, in test [1], the “IL6; Luninex (supernatant)” value came out at 511; the “TNFα; Luninex (supernatant)” value came to 157; the “Vg9 T cell %, flow staining” value amounted to 7%.

B8: VG9B425 (antibody, human IgG1, kappa)
heavy: EVQLLESGGGLVKPGGSLRLSCSASGFTFSNYDMNWVRQAPGKGLEWVSSISSSSSYIYYADSVKGRFTISRDNAKNSLYLQMNSLRAEDTAVYHCARDVGVTTDYYYYGMDVWGQGTMVTVSS[human IgG1 constant region omitted here]
light: ETTLTQSPGTLSLSPGDRATLSCRASQSVASSYLAWYQQKPGQSPRLLIYGASSRATGIPDRFSGSGSGTDFTLTISRLEPEDFAVYYCQQYGSSPPYTFGQGTKVEIKRTVAAPSVFIFPPSDEQLKSGTASVVCLLNNFYPREAKVQWKVDNALQSGNSQESVTEQDSKDSTYSLSSTLTLSKADYEKHKVYACEVTHQGLSSPVTKSFNRGEC
notes: IgG1, kappa; also called antibody #30
Take B8: in test [4], the “Max. Activity” value turned out to be 2660 fold over background.

B9: VG9B427 (antibody, human IgG1, kappa)
heavy: QVQLVESGGGLVKPGGSLRLSCSASGFTFSNYDMNWVRQAPGKGLEWVSSISSSSSYIYYADSVKGRFTISRDNAKNSLYLQMNSLRAEDTAVYHCARDVGVTTDYYYYGMDVWGQGTTVTVSS[human IgG1 constant region omitted here]
light: EIVMTQSPGTLSLSPGDRATLSCRASQSVASSYLAWYQQKPGQSPRLLIYGASSRATGIPDRFSGSGSGTDFTLTISRLEPEDFAVYYCQQYGSSPPYTFGQGTRLEIKRTVAAPSVFIFPPSDEQLKSGTASVVCLLNNFYPREAKVQWKVDNALQSGNSQESVTEQDSKDSTYSLSSTLTLSKADYEKHKVYACEVTHQGLSSPVTKSFNRGEC
notes: IgG1, kappa; also called antibody #26
As for B9, the “Max. Activity” value in test [4] amounted to 2730 fold over background.
